Data from the supplement of paper PMC11417369.
The other results are listed elsewhere or left out.

System: PF3D7_0420300 AP2 domain 1 (GST-tagged)
Experiment: gcPBM binding intensity (ln(normalized median fluorescence intensity)); higher = stronger DNA binding
Method in brief: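 Probes on an Agilent 4 × 180k array were primer-extended, double-stranded and 36 bp long, taken from intergenic genomic regions, with negative controls added. GST-tagged P. falciparum DNA-binding domains from E. coli, about 25 μg on average, were applied to the array for 1 h in 1× PBS containing 1% milk, 0.2 mg/ml BSA, 0.5% salmon testes DNA and 0.03% Triton X-100. Binding intensity, obtained after Alexa488 anti-GST antibody detection and a 488 nm scan, is the highest Masliner-normalised natural-log median intensity across replicate spots of either probe orientation.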

Sequence | gcPBM binding intensity (ln)
TATACAATATATATAACACACATATTTATATAAAAT [CACACA_site5061] | 9.57
AACATAAAAATTGAAGCACACACACTAATGAAATAC [CACACA_site8287] | 10.2
ACAAATCTATAAGAGTGTACGAACAGTAAAGGAATT [XGTACX_site2070] | 9.49
AAAATACCATTTGAAACACACAAAAAAAAAAAAAAT [CACACA_site2981] | 9.69
CAGTTGGAAGGAAAGTGTACATAAAAAAAAATATAA [XGTACX_site8784] | 9.09
TATTTTCTCGTTTGCATGCACCTTATTTTATGTGGT [GTGCAC_site9470] | 9.41
TAAAATTTGCGATGCACACAGAATAGCTAATATGAC [CACACA_site2995] | 9.62
ATATTATATATATACACACACACATGCATGCACATA [CACACA_site7917] | 10.1
AAATTCTGCATCGAGGTGCGCCATAAAAATTGTGGT | 9.18
TACTAAAACCCATACACACACATATTTATAGTACCA [CACACA_site7484] | 9.97
AGTTATTTTAAATGTAGTACACAAAAGAAATATTAA [XGTACX_site4092] | 9.18
CATAAATTAAAACACACACACACAAAAAAAAAAAAA [CACACA_site2262] | 10.1
CGGCTATTTCTATATACATGCATTTAAAAAAAAAAT [TGCATGCA_site354] | 8.94
TATATATCTGTGAAAATACTTAAATTGTTATAAAAA [CACACA_negctrl_site1109] | 8.98
AAAAAAAAAATGAGCACACATAAATAAAAACAAACA [CACACA_site1573] | 9.87
ACCTATTTCAAACACACACACACACTAACAAACATA [CACACA_site8233] | 10.3
AAAACATCAAAAATGTGTACATATATATATATATAT [XGTACX_site8884] | 9.11
ATATATATATATGCATGTACATATTTATCTTTATAT [XGTACX_site232] | 9.25
AACATATATTAGCTTACATGCAAAAAGTAAAAAAAT [TGCATGCA_site10] | 9.29
AATTTAAAACGGAGATGTACATATATAAATATATAC [XGTACX_site3723] | 9.37
TTTTTAATATATATCACACATATATATTTTTAATTA [CACACA_site6099] | 9.14
ATAAAAATCTTTAGTAGTACATTATAAAAAACTATT [XGTACX_site5531] | 9.09

Sequence | gcPBM binding intensity (ln)
ATGTGAACATTCAATGCACACGATGTAATTATACAT [CACACA_site15] | 9.25
CTAATCGTGCACAACTGTACATTTGTCAAGGGCAAT [XGTACX_site8662] | 9.15
TTATGGTGCATGAAATCACACATTGATATATATGCT [CACACA_site5352] | 9.15
ACATTTAAATAATATGTGCACAGCTATATTTTCTTT [GTGCAC_site9562] | 9.21
ATATATATATATATATGTACATATATATATTATATT [XGTACX_site6303] | 9.12
GTGTCTTTTATTAAATGTACATATTCATAGATAAAA [XGTACX_site8578] | 8.99
TTATTTTTTTGGAATTCACACACAAAAAAAAAAATA [CACACA_site8650] | 9.33
ACCTTAAAAATAACTGCACACAAAAATAAATACCTT [CACACA_site8902] | 9.71
ACGTAAACATGTAGAAGGCATTACACAATGGTATAC [TGCATGCA_negctrl_site512] | 9.41
TAGAATGAAAAAAAAGCATGCGGGCAAAAATTTTTA [TGCATGCA_site926] | 9.28
AATTGAGAAGTGTGTTGTACATAATGGCACATACCT [XGTACX_site1370] | 9.4
TAATATGTTTATGGTAACATACAAAAATGTATATAT [GTGCAC_negctrl_site204] | 9.04
TATTTTTTATTTTAAATCCTCTGATATTTAATTTGT [TGCATGCA_negctrl_site84] | 9.16
TATCCCCTTGTCCATATTAATTGTGACATCATATAT [XGTACX_negctrl_site9] | 9.41
ATGTGTATATATATGTGTACATAATTTGTGTTATTC [XGTACX_site2509] | 9.5
AAGGTATAATATATTTGTACATATACATTTTTGAAT [XGTACX_site6493] | 9.18
TGAAAAATGTAATGCTCACACATATATATATATATA [CACACA_site5213] | 9.24
GATTTTAATGGGTGTACACATTTATTTATATAAAGT [CACACA_site5317] | 9.18
ATATATTATGGGTGTGCACACAATATTTATATGTTC [CACACA_site2270] | 9.67
TTATAATAAATATATAAAAAAAAAAAAAAAAAAAAA [CACACA_negctrl_site1639] | 8.42
TTTTCTTATAAATGAAGTACAAAAAAAAAATATATA [XGTACX_site1352] | 9.03
TGATAGCACCTTATATGTACATATAATATATTATTA [XGTACX_site837] | 9.35
